The list shows a part of the results.
Tested on: PfSIP2 AP2 domain 1 (GST-tagged)
Assay: gcPBM binding intensity (ln(normalized median fluorescence intensity)); higher = stronger DNA binding
Method in brief: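 The highest Masliner-normalised natural-log median intensity across replicate spots of either probe orientation is reported as binding intensity. GST-tagged P. falciparum DNA-binding domains expressed in E. coli were applied for 1 h to an Agilent 4 × 180k array of primer-extended double-stranded 36-bp intergenic genomic probes plus negative controls, and bound protein was detected with Alexa488 anti-GST antibody and scanned at 488 nm.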

| Sequence | gcPBM binding intensity (ln) |
| --- | --- |
| TTTGTTATATTTAATACACACATATTATAAACACAT [CACACA_site7703] | 7.08 |
| ATAAATAAAGGACACACACACACACTAATAAAAAAA [CACACA_site8840] | 7.23 |
| TATATAATATATTTATGTACTCACAATGGGGTCTAC [XGTACX_site2691] | 7.29 |
| AAATTACTGTAAAAAAGTACAGAAGTTCTTATTTTT [XGTACX_site7416] | 6.97 |
| GTTCATATAATAAAATGTACATAATATATTATATAT [XGTACX_site7623] | 7.18 |
| AGTTTAATTTTGTATACACACATTTGAATTATTAAT [CACACA_site7625] | 7.25 |
| TATATCTATTTCAAATGTACTTATATGATTCTTATA [XGTACX_site6277] | 6.77 |
| AGCTACAAAAATTAATATATATATGTATAGTTATAC [TGCATGCA_negctrl_site531] | 6.81 |
| GTATTATATTTTAATACACACCCAAATATTAAAAAG [CACACA_site8968] | 7.1 |
| AAATGTTCAGAAACTATTATAAAAATGGAATAATAT [CACACA_negctrl_site1544] | 6.98 |
| TGCCATCATATCATAGGTACACAAACATATAAAGAA [XGTACX_site4137] | 7.47 |
| CTTAATATGGATATTGCATGTAGAACATGAACAATA [TGCATGCA_site760] | 6.77 |
| TAAATATTATATTTATGTACATAAGTTTTTTTTAAT [XGTACX_site3559] | 7.01 |
| TTATGCTCAAAGAAAAGTACATAAATAAAAGTATAT [XGTACX_site7365] | 7.2 |
| TTAACAAATAAATGCACACATATATATAAATAATAT [CACACA_site28] | 7.24 |
| TATATGTAGATTAAACGTACTTACAACGGAATTATC [XGTACX_site3036] | 7.2 |
| AAAAAAAAGAATTAGGCACACAATTTTAATATAGGA [CACACA_site1522] | 6.77 |
| GCATACATCAAGCACACACACACACGCACACGCACA [CACACA_site6311] | 7.98 |
| ACTACGAATGGTAGAGTGCAGTCTGGAGAAGAGTAC [GTGCAC_site9685] | 9.02 |
| GTGAAGTTCAAAATATGTACTTATGTATGTATTTTT [XGTACX_site165] | 6.94 |
| TTATGTTTCATAAAAAATTAATCAAACATATATAAG [CACACA_negctrl_site666] | 6.77 |
| TTATGGATGGACAATAATAAAATTTTTACTTTTATT [CACACA_negctrl_site908] | 6.91 |

| Sequence | gcPBM binding intensity (ln) |
| --- | --- |
| AAAAAAAAAATTATATATATATCCCTTATTTTTTCT [TGCATGCA_negctrl_site151] | 6.94 |
| TCATATATATTGAAATGTACTTATTTTTTCCTCATA [XGTACX_site6526] | 6.85 |
| CATACACAGAAACACACACACATATATACATATATA [CACACA_site1094] | 7.17 |
| TATACATAGAAACACACACACATAAATAAATATATA [CACACA_site1342] | 7.07 |
| CCTTAAATAATATATTCACACAATATAACAAAAATT [CACACA_site4892] | 6.97 |
| TGGTATATAAAACACACACACATATGTATATATATA [CACACA_site926] | 8.39 |
| ATATGTTTTAAGTGTACACATATAATGTATTTTGTT [CACACA_site4929] | 7.36 |
| TATTATGCTATTTAATGTACGGAATTTATATATATA [XGTACX_site564] | 7.68 |
| AACCTATCTATAGGAACAATATATATATATATAATT [CACACA_negctrl_site1707] | 7.05 |
| TTGCTCATTGAAATTATACACACCAAATATATAAAT [CACACA_site2482] | 7.13 |
| AAAATATATAAACGCACATATATTTATGTATATATA [CACACA_negctrl_site163] | 7.16 |
| TAAAAAAAAACATGATGTACATAAAATTTTTTACTT [XGTACX_site7056] | 6.85 |
| AAAAGGGAAAAAATTAAAATTATATATATATATATG [CACACA_negctrl_site137] | 7.21 |
| TTATTAGAGATGTTAAGATATAGGGATAATTTCGAT [XGTACX_negctrl_site395] | 6.92 |
| TACATATATTTAAGGAGTACAAAAAATAATGATAAA [XGTACX_site3539] | 7.39 |
| AAGCTTAAAAATGGGGGTACGTCATAGGGATTCAAC [XGTACX_site8080] | 7.43 |
| AATATATAAACATATACACACAAAAACATATATATA [CACACA_site4855] | 7.46 |
| TTTGACACAATATTTTGTACGAAACTATTAATTCAA [XGTACX_site4853] | 6.85 |
| GACATAGTATTAAGTTGTACATATATAAAAATAAAT [XGTACX_site1583] | 6.95 |
| TTGCTTTTCATTTATTGTACATACCCAGTAGGATAA [XGTACX_site3939] | 7.22 |
| AATGTACACGCACCCACACACAAACAAATATAAATA [CACACA_site7319] | 10.3 |
| TTACGAATGAATATATGTACATATATATATATATAT [XGTACX_site3790] | 8.97 |

| Sequence | gcPBM binding intensity (ln) |
| --- | --- |
| ATGTTTTCAAAAATAAAACATATAAATAAATAAATA [TGCATGCA_negctrl_site226] | 6.77 |
| CAACAACAAATGAGAAGTACATAAATATTAACAATA [XGTACX_site4625] | 6.91 |
| TTATAATACCTACAAAGTACAAACTTAAATATGAAC [XGTACX_site5684] | 6.94 |
| AAATTTTTTTTTTAATTTTTTATTTAAAAAAAATAT [TGCATGCA_negctrl_site174] | 6.79 |
| GTTATAAATAAATATACACACATATATAAAATACAT [CACACA_site7146] | 7.14 |
| TATAACATAAAACACACACACATACATACACAAAAA [CACACA_site1804] | 7.29 |
| CGCTTTATTTATATATGTACATATATATATATATAC [XGTACX_site5012] | 7.42 |
| AAGGCAAACAGACACACACACATATATACCTATATA [CACACA_site7077] | 7.12 |
| GTTATACACATTACATGTACAAAAGTTGCACTTCAT [XGTACX_site6023] | 9.45 |
| GTTGCCATCATTTGGCGTACAGTCAAAACCAAATCT [XGTACX_site1398] | 6.73 |
| TTTGTTCAATTTACATGTACAGATATAATCTAACAT [XGTACX_site370] | 6.89 |
| TCTATTAAAACAAATTGTACTTATTGATAAAGAATA [XGTACX_site3645] | 6.91 |
| ATTTTTATTTTATATACACACAATAATAATATAATA [CACACA_site4015] | 7.18 |
| AAGAGCAACCAAATAGAAAAAGGAAAATAAAAGGAA [CACACA_negctrl_site100] | 6.86 |
| TCCTATTTTATATAATGTACATAAATATATTACATA [XGTACX_site2720] | 7.13 |
| TTACAAATGTAGAAAAGTACATATAATAATAATTTA [XGTACX_site3044] | 7.2 |
| ATGGATAATAATAAGTGTACACATATATTTAGAAGA [XGTACX_site244] | 7.29 |
| GGTAGAAAATCAGTTAAACACACACCGAAAAAAAAA [CACACA_site8934] | 7.24 |
| ATTTGTATAATAAGTTGTACAATTCTTACAATATAA [XGTACX_site4164] | 6.96 |
| TTTAAGCGTTCACTGCTGCACTTTTATGTTGTGACC | 7.95 |
| AAAAAAAAAAAAAGCACACACACATATGCGTATATA [CACACA_site953] | 7.06 |
| TATAAGAAATAAAACCTGATTATAAACCTGTAACCA [CACACA_negctrl_site1302] | 6.72 |

| Sequence | gcPBM binding intensity (ln) |
| --- | --- |
| TAAATATAACAGAATAATATGTGGATTAATAAATGA [CACACA_negctrl_site438] | 6.81 |
| ATATAATATGTTGAATGTACTTAAAAAAATGTATCT [XGTACX_site5385] | 7 |
| TTAAGTTACAATTCTCGTACACATTAAAAGAAAATT [XGTACX_site699] | 7 |
| AAAAAAAAAAAAAAAACACACATGTATACTAGAATA [CACACA_site7108] | 7.56 |
| TTTTAATTATATTATGCACACACAATTGGAAAAAAA [CACACA_site8598] | 8.28 |
| AACAAATAAGATAAATGACTTAACAAAAGAAAAAAG [CACACA_negctrl_site1409] | 6.77 |
| GTAAAAAATATGAATACACACATAAAGGAAATAACA [CACACA_site1997] | 7.17 |
| AAAAAAAAAAAATTCACACACATATAAAAAATTAAG [CACACA_site728] | 6.9 |
| AAAAAAAAAAAAAAAAGTACAGACGTCAAAAAAAAA [XGTACX_site4817] | 8.09 |
| TAATATATAAGTATTTGTACATATTCATTCATCTAT [XGTACX_site2935] | 6.78 |
| TTTTTTTTTTTTTTTTTTTTTTTTGGGTCCCATACA [CACACA_negctrl_site913] | 7.22 |
| CACTATCAATATATATGTACATATATATATATATAT [XGTACX_site7854] | 9.16 |
| GTCACATTGTTATATTGTACAAATGTCGTTCTTTTT [XGTACX_site8098] | 6.96 |
| TAAATATATAAATACACACAAACATACATATATATA [CACACA_site4050] | 7.55 |
| ATATAAAAATATATTAATATAAATAAATGGACATAT [XGTACX_negctrl_site488] | 7.17 |
| CTTATACATTATTAACGTACATGTTATATGAATAAC [XGTACX_site5752] | 6.99 |
| AACATTATAGGACACACACACACATATATATATATA [CACACA_site4721] | 9.36 |
| TTTTTTTTTTTTTTTTTTTTTTTTAAATGCTTCTAA [TGCATGCA_negctrl_site253] | 7.08 |
| CATTATGTTGTAAATACACACATACCTATACATACA [CACACA_site6485] | 7.1 |
| TATTTATTTATATTTACACACATTCATATAAATTCA [CACACA_site7628] | 7.09 |
| TCTGAGAATGATAAAAAAAAAAAAAATGAAAAATTA [CACACA_negctrl_site1478] | 6.59 |

From the supplement of paper PMC11417369
